This is one part of the list. The energies were worked out here from pooled read counts, against the library average; single values are noisy.
The sequences below were run against T1, Pho4 (S. cerevisiae) (UniProt P07270) (assay: relative binding free energy (BET-seq); higher = weaker binding). Settings: reference: library average.
T1 sequence: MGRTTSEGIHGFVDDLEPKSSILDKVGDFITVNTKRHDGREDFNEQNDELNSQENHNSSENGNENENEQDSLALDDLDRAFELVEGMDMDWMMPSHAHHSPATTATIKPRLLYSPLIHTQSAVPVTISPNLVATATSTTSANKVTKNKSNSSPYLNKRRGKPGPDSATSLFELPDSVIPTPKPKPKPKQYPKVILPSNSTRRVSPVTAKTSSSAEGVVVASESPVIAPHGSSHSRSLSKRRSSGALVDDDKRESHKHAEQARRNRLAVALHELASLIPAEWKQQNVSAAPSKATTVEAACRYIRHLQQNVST

Sequence	relative binding free energy [kcal/mol]
GTGCACACGTGGTATT	-0.02
GGAAGCACGTGGTCGT	-0.16
AGCTACACGTGGAGGT	0.04
TTGTCCACGTGTCTTT	0.04
GGGGGCACGTGATGGG	0.05
TTGGGCACGTGTGGCT	0.03
CTTGTCACGTGTAATT	0.16
GTGAACACGTGGAGAG	-0.03
TGTTTCACGTGGGTGT	0.21
TAAGTCACGTGATGTA	0.24
TCCAGCACGTGTTGTT	0.07
ATCAGCACGTGTGGGT	0
AGGGACACGTGCGCTG	-0.03
TGTGCCACGTGGTTTA	-0.2
AAAGACACGTGTGAGT	0.16
TAGCTCACGTGTAGGT	0.18
GAGTTCACGTGAGCTT	0.36
TCGTGCACGTGGGTTG	-0.15
ATCGGCACGTGGCGGG	-0.06
TTCAACACGTGTTGTT	-0.04
GGTTACACGTGGCTAT	0.12
CAGTTCACGTGGTAGA	0.25
TCGATCACGTGGAGGT	0.16
GTGGACACGTGGGCAT	-0.14
GTACTCACGTGTTGGG	0.13

Sequence	relative binding free energy [kcal/mol]
TGGGTCACGTGTATTT	0.12
GTCGGCACGTGGCGGG	-0.21
GGTATCACGTGTCGGG	0.25
ATTTACACGTGTTATT	0.12
ATTGGCACGTGAGGTG	0.03
AGAGTCACGTGAAGTA	0.29
GGCAGCACGTGGTGTT	-0.15
AGTGGCACGTGAATTA	0.12
ATGGACACGTGTATAT	-0.02
TGGTCCACGTGGGTAA	-0.25
GAAGTCACGTGGGGCA	-0.1
CTTTGCACGTGGTTTC	-0.03
GTGGCCACGTGTGGTA	0
TAGAACACGTGTTTTT	-0.05
ATTAGCACGTGTGGTA	-0.05
AGTTTCACGTGACATG	0.32
TTGGCCACGTGTGATA	0.04
GGACACACGTGGTGGG	-0.02
ATAGACACGTGTTTGT	-0.07
TGTGTCACGTGGCAGC	0.11
TGTTGCACGTGTGTAT	0.06
GAGAACACGTGTAGGT	0.11
AGTTGCACGTGGTGGC	0.01
TATAACACGTGTTGTG	-0.06
AGTCTCACGTGTTAAG	0.2

Sequence	relative binding free energy [kcal/mol]
CGGTACACGTGGTTCT	0.13
TGCGCCACGTGGAGGG	-0.19
AACTGCACGTGGTGGA	0.05
CAGGGCACGTGGTGGA	-0.26
AGCGACACGTGAGGTA	0.31
ATTTTCACGTGTGAGT	0.4
AGTAGCACGTGAGGTC	0.19
ATAGGCACGTGTAGGA	-0.1
GTGGGCACGTGGGGGT	-0.2
GTGGGCACGTGGTTCA	-0.1
ACGTGCACGTGGTGAA	-0.17
GTTCGCACGTGTGGGA	0.17
GGAGGCACGTGTACGT	-0.22
TTGTACACGTGTCGTG	0.11
AAGTTCACGTGATAAA	0.46
TTTTGCACGTGTGAGA	0.17
GGAGGCACGTGTACTG	-0.11
AGGTTCACGTGGTGGG	0.32
TGATACACGTGAAGTG	0.2
CTGCGCACGTGGTGGC	-0.21
GTCTTCACGTGGTAGT	0.3
CGTAACACGTGTTTGA	0.08
TTCGTCACGTGGATGG	0.13
GTATACACGTGAGAGG	0.3
GTTGTCACGTGGGGTG	0.03

Sequence	relative binding free energy [kcal/mol]
CGGTTCACGTGAATGT	0.36
GGGTGCACGTGAAGAA	0.31
TTTCTCACGTGGAGAT	0.15
GCTGTCACGTGGTTTC	0.21
TAATACACGTGGTTGG	-0.04
CTTATCACGTGTAATT	0.15
TTTTGCACGTGCGTCT	-0.04
TTCGGCACGTGCGGGC	-0.08
AGATACACGTGGTGGC	0.03
TGGTGCACGTGTTGGC	0.07
AATTACACGTGTTGAG	0.02
TTCCGCACGTGAGGGG	0.03
GGCAACACGTGTTTGG	0.19
GTGAGCACGTGGCCGG	-0.23
TATTGCACGTGATAGT	0.12
GTGGCCACGTGTAGGG	-0.06
GTATGCACGTGTCTTG	-0.03
TGAGACACGTGAGTGA	0.27
TTGAGCACGTGCGCTG	-0.16
CTTGTCACGTGTGCAT	-0.09
GTGGTCACGTGCGGAT	0.03
GTCGGCACGTGATTTT	0.14
GTACTCACGTGTTGGA	0.46
GGAAGCACGTGTGCGT	-0.02
TAGTACACGTGCGGTA	0

Sequence	relative binding free energy [kcal/mol]
TTTTTCACGTGGCAGG	0.32
TGTATCACGTGCGTAT	0.18
GAGCGCACGTGGGTCG	-0.2
TGGCGCACGTGGCCGG	-0.28
TGGTCCACGTGTGTAG	0.03
GCTGCCACGTGAGGGG	0.08
GGGTTCACGTGTCAGA	0.42
GGGGCCACGTGGAAGT	0
TGGAGCACGTGACTTG	0.05
TAAAGCACGTGTTGTC	-0.12
AGGGGCACGTGTGCCG	-0.04
TTTTCCACGTGGGTAG	-0.07
AGGTACACGTGCATTT	0.15
TAAAGCACGTGTACGG	0
GCGATCACGTGTGGCG	0.21
TATTGCACGTGTGTCT	-0.07
ATGTTCACGTGGTACT	0.11
CTCTTCACGTGTATTT	0.24
GGATGCACGTGATTTT	0.17
GGGTGCACGTGTCATA	-0.08
AATAGCACGTGGATAG	0.08
GATTTCACGTGAGCGT	0.2
TGGAGCACGTGTTGTA	-0.01
TGATTCACGTGGGTAA	0.14
CTAGGCACGTGGAAGT	0.05

Sequence	relative binding free energy [kcal/mol]
AAGTGCACGTGTGGTT	0.06
TTATGCACGTGCGTGA	-0.12
TACGTCACGTGTGGTG	0.07
TGGATCACGTGCGGAA	0.26
TGCAGCACGTGAGGGC	0.04
TGGATCACGTGTACTG	0.22
AAGGGCACGTGTCGGC	-0.2
CTGGTCACGTGATGGG	0.06
GGCTGCACGTGTGTAG	-0.03
GTAAACACGTGCGGGT	0.12
TGTTTCACGTGTAGAC	0.36
TTGGGCACGTGGCGTA	-0.23
TCTTTCACGTGACTGG	0.54
GATAGCACGTGTGGGA	0.16
GAAATCACGTGGATGG	0.23
GTGAACACGTGAATTG	0.4
TTGGACACGTGTAGTA	0.05
CTTTGCACGTGTCTTT	0.02
GGAGGCACGTGTAAAG	-0.13
TGCGTCACGTGGGGCC	-0.01
TTCGGCACGTGTTTGG	-0.01

— the BET-seq Pho4 binding data (Le et al. 2018)
